# Measured values from PubChem BioAssay AID1345083 (National Center for Advancing Translational Sciences (NCATS), 2018).
# Values joined by “and” are separate entries in the source; they are usually repeats but may differ in a detail not shown here. Identical values can stand only once. The campaign covered roughly 94,000 compounds. About 6,200 (6.6%) were called active. This list was built around the results that the source calls inconclusive (neither active nor inactive); the mix of calls is not that of the screen. Calls come from the whole dose curve; as a rule, active = well fitted inhibition curve with a large enough effect; inconclusive = small, poorly fitted or top-dose-only effect; inactive = flat fitted curve, though single readings scatter. Potencies beside an inconclusive call are fits to weak or partial responses and may not hold up.
# Test: Cytotoxic Profiling in HEK 293 Cell Line of Diverse Libraries Using Quantitative High-Throughput Screening; note: nearly all actives have a fitted effect of over 60% in size
# Details: HEK 293 viability, ATP luminescence (CellTiter-Glo), 48-72 h; activity change, negative = cytotoxicity: at 115 µM (top of the series) unless noted; series mostly up to 115 µM
# Procedure, shortened: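 250 HEK 293 cells/well; compound by pintool; incubated 48 or 72 hr at 37 degree Celsius; CellTiter-Glo added, 10 min RT, luminescence imaged.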
# % is set by controls: 0 for no effect and ±100 for the full control effect; potency is the fitted concentration of half-maximal effect; tags give direction and shape of the fitted curve.
Structure (SMILES),"activity change, negative = cytotoxicity",Potency,outcome
Cn1ncc2c(C(=O)NCC(F)F)cc(-c3ccc(Cl)cc3Cl)nc21,inactive: 2.81%,,
CCN(CC)c1cc(CCC(=O)Nc2ccc(OC)c(OC)c2)ccn1,,"inconclusive: 89.1 µM [inhibitor, single point]",
CCN1c2cc(C(=O)Nc3ccc(OC)cc3OC)ccc2C(=O)N2CCCCCC21 (stereo not drawn),,"inconclusive: 50.1 µM [inhibitor, partial curve, poor fit]",
COc1cccc(-c2cccc(C(=O)N3CCCC3C(=O)N(C)C)c2)c1 (stereo not drawn),inactive: -22.9%,,
c1ccc(CN2Cc3[nH]cnc3C[C@H]2c2nc(-c3ccncc3)no2)cc1,,"inconclusive: 100 µM [inhibitor, partial curve]",
COc1cccc(C(=O)NCC2Cn3cccc3C(=O)N2Cc2ccccc2)c1 (stereo not drawn),,"inconclusive: 89.1 µM [inhibitor, single point]",
Cc1[nH]cnc1CN1CCCC(C(=O)Nc2ccc(-c3cccc(F)c3)cc2)C1 (stereo not drawn),,active: 25.1 µM,
Cc1ccc(Nc2ccnc(N3CCC(NC(=O)Nc4ccc(Cl)cc4)CC3)n2)cc1,,active: 25.1 µM,
Cc1cc(C2CCCCN2C(=O)Nc2cccc(-c3csc(C)n3)c2)no1 (stereo not drawn),,"inconclusive: 56.2 µM [inhibitor, partial curve, poor fit]",
COc1ccc(Cn2c3c(c(=O)n2Cc2ccccc2)CCN(C(=O)Cc2cccc(Cl)c2)C3)cc1,,"inconclusive: 56.2 µM [inhibitor, partial curve, poor fit]",
COC1CN(c2cccc(F)c2)C12CCN(C(=O)CCCc1ccccc1)CC2 (stereo not drawn),,"inconclusive: 56.2 µM [inhibitor, partial curve, poor fit]",
Cc1ccccc1NC(=O)Cn1c(-c2ccc(F)cc2)nc(C)c(CCO)c1=O,,"inconclusive: 89.1 µM [inhibitor, partial curve, poor fit]",
COCCN[C@H]1[C@@H]2OC[C@@H](O2)[C@@H](NC(=O)Nc2cccc(OC)c2)[C@@H]1O,inactive: -13.4% [at 172 µM],,
CN1CC2(CCCN(CC3CC3)C2)c2cc(C(=O)NCCc3ccccc3)ccc21 (stereo not drawn),,"inconclusive: 89.1 µM [inhibitor, partial curve, poor fit]",
Cc1cn2nc(C(=O)Nc3ccc4c(c3)OCCO4)cc2c(N2CCSCC2)n1,,"inconclusive: 20 µM [inhibitor, full curve, poor fit]",
CC(C)CN1C(=O)CO[C@H](c2ccc(NC(=O)c3ccccc3)cc2)[C@H]1CO,,active: 100 µM,
COc1cccc(CN2Cc3nc(-c4cnn(Cc5ccccc5)c4)ccc3OCC2=O)c1,,"inconclusive: 50.1 µM [inhibitor, partial curve, poor fit]",
C/C(=C\c1ccccc1)CN1CCC2(Cc3ccccc3CNC2=O)C1 (stereo not drawn),,"inconclusive: 89.1 µM [inhibitor, partial curve]",
Cc1ccc(-c2cc(N3CCCN(C(=O)c4nn(C)c5ccccc45)CC3)n[nH]2)cc1C,,"inconclusive: 50.1 µM [inhibitor, partial curve, poor fit]",
CCCC(=O)N1CCN(c2ccnc3ccnn23)CC1,inactive: 2.21% [at 172 µM],,
COc1ccc(CN2Cc3[nH]cnc3C[C@H]2c2nc(-c3ccc(F)c(Cl)c3)no2)cc1,,"inconclusive: 50.1 µM [inhibitor, partial curve, poor fit]",

Structure (SMILES),"activity change, negative = cytotoxicity",Potency,outcome
CCCN(CC1CCOC1)S(=O)(=O)c1cccc(F)c1 (stereo not drawn),inactive: 3.22%,,
O=C(c1ccc(Cl)cc1)N1CCC2(CC1)Cc1ccccc1NC2=O,,"inconclusive: 44.7 µM [inhibitor, partial curve, poor fit] and inconclusive: 3.55 µM [inhibitor, full curve, poor fit]",
Cc1cc(C)cc(CN2CCC3(Cc4ccccc4CNC3=O)C2)c1 (stereo not drawn),,"inconclusive: 70.8 µM [inhibitor, partial curve]",
CC(C)(C)CN1CCOC[C@H]1c1ncc(-c2cccc(Cl)c2)[nH]1,,active: 100 µM,
c1cc(-c2cc(-c3ccc(N4CCOCC4)nc3)cn3cncc23)ccn1,,"inconclusive: 126 µM [inhibitor, single point]",
O=C(NCC1CCCCC1)[C@@H]1CCCN1c1ccnc2ccnn12,,"inconclusive: 70.8 µM [inhibitor, partial curve]",
CCOc1ccc(CC(=O)NC2CCN(c3cc(-c4ccc(OC)cc4)[nH]n3)CC2)cc1,,"inconclusive: 44.7 µM [inhibitor, partial curve, poor fit]",
COc1ccc(CN2C(=O)[C@@H]3C[C@@H](CN3C(=O)c3cnccn3)Oc3ccccc32)cc1,inactive: 2.74% [at 172 µM],,
Cc1ccc(-c2ccc3nnc(CNC(=O)c4ccoc4)n3n2)cc1C,,"inconclusive: 100 µM [inhibitor, single point]",
COC[C@@H]1CN(C(=O)c2cccn2C)C[C@H]1c1ccccn1,inactive: 2.4%,,
O=C([C@@H]1CNC[C@H](C(=O)N2CCN(c3nccs3)CC2)C1)N1CCCC1,inactive: -17.1%,,
O=C1[C@@H]2C[C@@H](CN2Cc2nccs2)Oc2ccccc2N1Cc1ccc(OC(F)(F)F)cc1,,"inconclusive: 50.1 µM [inhibitor, partial curve, poor fit]",
COCC1CN(S(=O)(=O)c2ccc3c(c2)CCC3)CC12CCNCC2 (stereo not drawn),,"inconclusive: 56.2 µM [inhibitor, partial curve, poor fit]",
CN(C)c1ccc(NC(=O)c2cc(-c3ccccc3C(F)(F)F)nc3c2cnn3C)cc1,,active: 25.1 µM,
Cc1cnc(C2CC2)n1CCNS(=O)(=O)c1cc(F)cc(F)c1,inactive: 12%,,
O=C(c1ccc(Cl)nc1)N1CCC(C(=O)N2CCC(c3nc4ncccc4[nH]3)C2)CC1 (stereo not drawn),inactive: -1.13%,,
Cc1ccc(CNC(=O)C2(Cc3ccccc3)CCCCC(=O)N2)cc1 (stereo not drawn),,"inconclusive: 89.1 µM [inhibitor, single point]",
CCCn1cc(CN2CCc3nc(NC)nc(C(=O)N4CCCC4)c3C2)c(C)n1,,"inconclusive: 70.8 µM [inhibitor, partial curve, poor fit]",
COc1ccc(-n2nc(C3CCN(C(=O)Cc4cccc(Cl)c4)CC3)[nH]c2=O)cc1,,"inconclusive: 79.4 µM [inhibitor, partial curve, poor fit]",
O=C(COc1ccc(F)cc1)N1CCOc2ccc(CN3CCc4ccccc4C3)cc2C1,,"inconclusive: 50.1 µM [inhibitor, partial curve, poor fit]",
CCn1ncc(N2CCCC(CC(=O)N3CCN(c4ccccc4)CC3)C2)cc1=O (stereo not drawn),,"inconclusive: 100 µM [inhibitor, single point]",

Structure (SMILES),"activity change, negative = cytotoxicity",Potency,outcome
COc1cccc(Nc2ccc3c(n2)C(C)(C(=O)NC(C)C)CN(C)C3)c1 (stereo not drawn),,"inconclusive: 35.5 µM [inhibitor, full curve]",
COc1ccc(-n2cc(-c3ccnc(N(C)Cc4cnccn4)n3)cn2)cc1,,"inconclusive: 35.5 µM [inhibitor, partial curve, poor fit]",
O=C(NCCc1ccccc1)c1cc2n(n1)CC(c1ccc(Cl)cc1)OC2 (stereo not drawn),,"inconclusive: 50.1 µM [inhibitor, partial curve, poor fit]",
CN(C)c1cccc(-c2nccc3c(=O)cc(-c4cn[nH]c4)oc23)c1,,"inconclusive: 112 µM [inhibitor, partial curve, poor fit]",
CCCNC(=O)N1C[C@@H](Oc2ccccc2)C[C@@H]1C(=O)NCCOC,,"inconclusive: 100 µM [inhibitor, partial curve, poor fit]",
CC(C)Cc1nc2nccc(-c3ccc(F)cc3)n2n1,,"inconclusive: 89.1 µM [inhibitor, single point]",
Cc1cc(S(=O)(=O)N2CCN(C3CCN(CCc4ccccc4)C3=O)CC2)ccc1F (stereo not drawn),,"inconclusive: 89.1 µM [inhibitor, single point]",
Cc1cc(C)cc(C(=O)N2CCC(n3cc(-c4nc(C)no4)nn3)CC2)c1,inactive: -13.2%,,
Cc1nn(-c2ccccc2)c2c1C(C(C)C)N(C1CCCN(C(=O)Cc3cccc(Cl)c3)C1)C2=O (stereo not drawn),,active: 28.2 µM,
COc1cc(CN2CCCC(c3[nH]ccc3C(N)=O)C2)ccc1F (stereo not drawn),inactive: -4.15%,,
Cc1ccc(C(=O)N2CCOC(c3ccc(Cl)c(Cl)c3)C2)c(=O)n1C (stereo not drawn),,"inconclusive: 39.8 µM [inhibitor, partial curve]",
CC(C)NC(=O)C[C@@H]1c2nc(NC(=O)c3ccc(F)cc3)sc2C[C@@H]2[C@](C)(CO)[C@H](O)CC[C@]21C,,,inactive
Cc1nn(-c2ccccc2)c2c1C(C)N(C1CCCN(C(=O)N(C)C)C1)C2=O (stereo not drawn),,"inconclusive: 79.4 µM [inhibitor, partial curve, poor fit]",
COc1ccc(-c2cc(C[C@@H]3CC[C@H](O)[C@@H](CNC4CCN(C)CC4)O3)no2)cc1,,"inconclusive: 126 µM [inhibitor, single point]",
O=C(c1ccccn1)N1CCCC(n2cc(-c3nc(-c4ccccc4)no3)nn2)C1 (stereo not drawn),,"inconclusive: 50.1 µM [inhibitor, partial curve, poor fit]",
O=C(NCCc1ccc(Cl)cc1)c1nc(-c2cccc(F)c2)c2cnccn12,,"inconclusive: 3.55 µM [inhibitor, full curve, poor fit]",
Cn1cc(CN2CCN3CCCC3C2)c(-c2ccc(C3CCCCC3)cc2)n1 (stereo not drawn),,active: 25.1 µM,
CCCC1c2nccn2CCCN1C(=O)c1cocn1 (stereo not drawn),inactive: -7.2%,,
O=C([C@@H]1C[C@@H](c2ccc(F)cc2)N(Cc2ccccc2)C1)N1CCN(c2ccccn2)CC1,,"inconclusive: 50.1 µM [inhibitor, partial curve]",
CCOC(=O)CN(C(=O)CC1CCCC1)[C@H]1C[C@H]2CCOC[C@H]2C1,inactive: -4%,,
Cc1c(F)cccc1NC(=O)Nc1cccc(-c2ccc(N3CCOCC3)nn2)c1,inactive: -11.3%,,
